# About 190 (3.5%) of roughly 5,400 compounds showed an effect of 50% or more. This is one part of the list. Positions of bridges follow the written chain, without caps; N, C: chain ends. Non-standard residues stand in square brackets, D forms with d. Residues, ends and D or L forms follow the SMILES beside them. ξ: configuration not given here. dTrp(2-Me) = Cc1[nH]c2ccccc2c1C[C@@H](N)C(=O)O; ξThr(3R) = C[C@@H](O)C(N)C(=O)O; Orn = NCCC[C@H](N)C(=O)O; Mpa = O=C(O)CCS
# System: Vero-E6
# Test: primary screen, phospholipidosis by LipidTOX staining; higher = more effect of the substance
# Settings: 10 µM
# Outline: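 Drug-induced phospholipidosis detected with HCS LipidTOX Red reagent in Vero-E6 cells. Compounds tested at 10 μM, with amiodarone (10 μM) as positive control and DMSO (0.1 v/v %) as vehicle.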
row,SMILES,result_ITMP [%]
1,COc1ccccc1OCC(O)COC(N)=O (stereo not shown),-2.74
2,Cc1[nH]c2ccccc2c1C[C@@H](NC(=O)[C@@H](N)Cc1cnc[nH]1)C(=O)N[C@@H](C)C(=O)N[C@@H](Cc1c[nH]c2ccccc12)C(=O)N[C@H](Cc1ccccc1)C(=O)N[C@@H](CCCCN)C(N)=O (H-H[dTrp(2-Me)]AW[dF]K-NH2),1.15
3,COc1cc(N2CCC(N3CCN(C)CC3)CC2)ccc1Nc1ncc(Cl)c(Nc2ccccc2P(C)(C)=O)n1,-0.55
4,CN(C)C(=O)Oc1ccc[n+](C)c1,-9.05
5,Cc1cc(N)c2ccccc2[n+]1CCCCCCCCCC[n+]1c(C)cc(N)c2ccccc21,-7.35
6,CCNC(=O)/C=C/c1cccc(Br)c1,-3.03
7,NC1CCN(c2nc3c(cc2F)c(=O)c(C(=O)O)cn3-c2ccc(F)cc2F)C1 (stereo not shown),-4.74
8,O=C(NC1CCN(CCc2c[nH]c3ccccc23)CC1)c1ccccc1,6.62
9,COc1cc(OC)nc(O[C@H](C(=O)O)C(OC)(c2ccccc2)c2ccccc2)n1,-0.06
10,N[C@@]1(C(=O)O)CS(=O)(=O)[C@H]2[C@H](C(=O)O)[C@H]21,-3.92
11,NCCCNCCSP(=O)(O)O,-10.5
12,O=C([O-])c1nc(=O)[nH]c(=O)[nH]1,-2.23
13,Cc1ccc2c(=O)c3cccc(CC(=O)O)c3oc2c1C,-3.38
14,CCCCc1ccc(O)cc1O,-3.79
15,c1ccc2nc(C3=NCCN3)ccc2c1,-1.04
16,Nc1sc2c(c1C(=O)c1ccc(Cl)cc1)CCCC2,-6.93
17,CN(C)CCn1cc(S(=O)(=O)c2cccc(F)c2)c2cccnc21,-1.84
18,CN1CCN(c2ccc3ccccc3n2)CC1,-1.59
19,CC(C)(C)c1ccc(C(O)CCCN2CCC(C(O)(c3ccccc3)c3ccccc3)CC2)cc1 (stereo not shown),-4.73
20,O=[N+]([O-])c1ccc(O)c([N+](=O)[O-])c1,-4.21
21,Cc1oc2nc3c(c(NC(=O)CN4CCCC4=O)c2c1C)CCCC3,-2.52
22,COc1cc(/C=C/c2ccc(OC)cc2OC)cc(OC)c1,-1.18
23,CCCCN1CCCCC1C(=O)Nc1c(C)cccc1C (stereo not shown),12.6
24,CO/N=C1\C[C@]2(C[C@@H]3C[C@@H](C/C=C(\C)C[C@@H](C)/C=C/C=C4\CO[C@@H]5[C@H](O)C(C)=C[C@@H](C(=O)O3)[C@]45O)O2)O[C@H](/C(C)=C/C(C)C)[C@H]1C,7.86
25,CCOC(=O)NNc1nncc2ccccc12,-1.79
26,S=c1[nH]c2ccccc2s1,-6.09
27,COc1cc(CC2NCCc3cc(O)c(O)cc32)cc(OC)c1OC (stereo not shown),-7.76
28,COc1cc(N2CCC(N3CCN(C)CC3)CC2)ccc1Nc1ncnc(Nc2ccccc2S(=O)(=O)C(C)C)n1,44.8

row,SMILES,result_ITMP [%]
1,CCN(CCO)CCCC(C)Nc1ccnc2cc(Cl)ccc12 (stereo not shown),1.54
2,Cc1nc(Nc2ncc(C(=O)Nc3c(C)cccc3Cl)s2)cc(N2CCN(CCO)CC2)n1,18
3,C=C(C)C1CC=C(CO)CC1 (stereo not shown),-2.64
4,CON,-3.8
5,NC(=O)c1cn([C@@H]2O[C@H](CO)[C@@H](O)[C@H]2O)c2ncnc(N)c2c1=O,-2.7
6,CCN1CCN(Cc2ccc(-c3cc4c(N[C@H](C)c5ccccc5)ncnc4[nH]3)cc2)CC1,21.2
7,CCOC(=O)c1c(CSc2ccccc2)n(C)c2cc(Br)c(O)c(CN(C)C)c12,13.1
8,CN1CCCCC1CCN1c2ccccc2Sc2ccc(S(C)=O)cc21 (stereo not shown),-0.95
9,O=C(NC1CCN(Cc2ccccc2)CC1)c1ccc(I)cc1,1.54
10,Cn1cc(-c2cc(Oc3cc(F)c(NC(=O)C4(C(=O)Nc5ccccc5)CC4)cc3F)ccn2)cn1,-9.64
11,O=C1C=CC(=O)C2=C1C1c3ccccc3C2c2ccccc21,-1.69
12,Cc1cc(Nc2nc(N[C@@H](C)c3ccc(F)cc3)c(C#N)cc2F)n[nH]1,32.8
13,N#Cc1ccncn1,-3.1
14,CC(/C=C/C(=O)NO)=C\[C@@H](C)C(=O)c1ccc(N(C)C)cc1,-8.84
15,Clc1ccc(N2CCN(Cc3c[nH]c4ncccc34)CC2)cc1,1.68
16,Cc1nc(-c2ccc(OCC(C)C)c(C#N)c2)sc1C(=O)O,4.49
17,CCn1cnc2c(Nc3cccc(Cl)c3)nc(N[C@@H]3CCCC[C@@H]3N)nc21,23.1
18,O=c1ccn([C@@H]2O[C@H](COP(=O)(O)OP(=O)(O)OP(=O)(O)O)[C@@H](O)[C@H]2O)c(=O)[nH]1,-9.08
19,C[C@@H](O)[C@H]1C(=O)N2C(C(=O)[O-])=C(SC3Cn4cnc[n+]4C3)[C@H](C)[C@H]12 (stereo partly shown),-0.41
20,CN(C)c1ccc(C(=C2C=CC(=[N+](C)C)C=C2)c2ccc(N(C)C)cc2)cc1,-9.2
21,O=C(OCC(COC(=O)c1cccnc1)(COC(=O)c1cccnc1)COC(=O)c1cccnc1)c1cccnc1,-4.07
22,CC(C(=O)O)c1ccc2c(c1)CC(=O)c1ccccc1S2 (stereo not shown),-6.91
23,Oc1cc2c(cc1O)[C@@H]1c3ccc(O)c(O)c3OC[C@]1(O)C2,-3.36
24,CC(=O)N[C@H]1[C@@H](OC(C)C)O[C@H](COC(C)=O)[C@@H](OC(C)=O)[C@@H]1OC(C)=O,-6.26
25,CCOc1ccc(C[C@H]2NC(=O)CCSSC[C@@H](C(=O)N3CCC[C@H]3C(=O)N[C@@H](CCCN)C(=O)NCC(N)=O)NC(=O)[C@H](CC(N)=O)NC(=O)[C@H]([C@@H](C)O)NC(=O)[C@H]([C@@H](C)CC)NC2=O)cc1 ([Mpa][dY](Et)I[ξThr(3R)]NCP[Orn]G-NH2; disulfide 1-6),-2.97
26,Cc1nc(-c2cccnc2)sc1C(=O)Nc1ccccc1-c1cn2c(CN3CCOCC3)csc2n1,-7.93
27,CC(=O)[C@]1(N)Cc2c(O)c3c(c(O)c2[C@@H](O[C@H]2C[C@H](O)[C@H](O)CO2)C1)C(=O)c1ccccc1C3=O,-1.29

# Reference: paper PMC13083723 (Patterns, 2026)
